Several values for one entry are separate records, joined by “and”; a condition that tells them apart may be missing. Equal values may be shown once. The whole screen tested about 220,000 compounds, of which about 5,700 (2.6%) were called active. Inconclusive means that the source gave no clear call. Such entries were picked first, then a sample of the others. Calls follow the shape of the dose curve; as a rule, active = well fitted inhibition curve with a large enough effect; inconclusive = small, poorly fitted or top-dose-only effect; inactive = no such curve, though single readings can be large or run the other way. Potencies beside an inconclusive call are fits to weak or partial responses and may not hold up.
These molecules were tested against Lysine-specific demethylase 5B (Homo sapiens) (UniProt Q9UGL1) (assay: Primary screen for KDM5B Histone Demethylases FDH-coupled qHTS). Details: FDH-coupled NADH fluorescence (FDH is formaldehyde dehydrogenase); activity change, negative = inhibition: at 57.7 µM (top of the series) unless noted.
UniProt Q9UGL1, sequence (Q9UGL1 whole entry, looked up): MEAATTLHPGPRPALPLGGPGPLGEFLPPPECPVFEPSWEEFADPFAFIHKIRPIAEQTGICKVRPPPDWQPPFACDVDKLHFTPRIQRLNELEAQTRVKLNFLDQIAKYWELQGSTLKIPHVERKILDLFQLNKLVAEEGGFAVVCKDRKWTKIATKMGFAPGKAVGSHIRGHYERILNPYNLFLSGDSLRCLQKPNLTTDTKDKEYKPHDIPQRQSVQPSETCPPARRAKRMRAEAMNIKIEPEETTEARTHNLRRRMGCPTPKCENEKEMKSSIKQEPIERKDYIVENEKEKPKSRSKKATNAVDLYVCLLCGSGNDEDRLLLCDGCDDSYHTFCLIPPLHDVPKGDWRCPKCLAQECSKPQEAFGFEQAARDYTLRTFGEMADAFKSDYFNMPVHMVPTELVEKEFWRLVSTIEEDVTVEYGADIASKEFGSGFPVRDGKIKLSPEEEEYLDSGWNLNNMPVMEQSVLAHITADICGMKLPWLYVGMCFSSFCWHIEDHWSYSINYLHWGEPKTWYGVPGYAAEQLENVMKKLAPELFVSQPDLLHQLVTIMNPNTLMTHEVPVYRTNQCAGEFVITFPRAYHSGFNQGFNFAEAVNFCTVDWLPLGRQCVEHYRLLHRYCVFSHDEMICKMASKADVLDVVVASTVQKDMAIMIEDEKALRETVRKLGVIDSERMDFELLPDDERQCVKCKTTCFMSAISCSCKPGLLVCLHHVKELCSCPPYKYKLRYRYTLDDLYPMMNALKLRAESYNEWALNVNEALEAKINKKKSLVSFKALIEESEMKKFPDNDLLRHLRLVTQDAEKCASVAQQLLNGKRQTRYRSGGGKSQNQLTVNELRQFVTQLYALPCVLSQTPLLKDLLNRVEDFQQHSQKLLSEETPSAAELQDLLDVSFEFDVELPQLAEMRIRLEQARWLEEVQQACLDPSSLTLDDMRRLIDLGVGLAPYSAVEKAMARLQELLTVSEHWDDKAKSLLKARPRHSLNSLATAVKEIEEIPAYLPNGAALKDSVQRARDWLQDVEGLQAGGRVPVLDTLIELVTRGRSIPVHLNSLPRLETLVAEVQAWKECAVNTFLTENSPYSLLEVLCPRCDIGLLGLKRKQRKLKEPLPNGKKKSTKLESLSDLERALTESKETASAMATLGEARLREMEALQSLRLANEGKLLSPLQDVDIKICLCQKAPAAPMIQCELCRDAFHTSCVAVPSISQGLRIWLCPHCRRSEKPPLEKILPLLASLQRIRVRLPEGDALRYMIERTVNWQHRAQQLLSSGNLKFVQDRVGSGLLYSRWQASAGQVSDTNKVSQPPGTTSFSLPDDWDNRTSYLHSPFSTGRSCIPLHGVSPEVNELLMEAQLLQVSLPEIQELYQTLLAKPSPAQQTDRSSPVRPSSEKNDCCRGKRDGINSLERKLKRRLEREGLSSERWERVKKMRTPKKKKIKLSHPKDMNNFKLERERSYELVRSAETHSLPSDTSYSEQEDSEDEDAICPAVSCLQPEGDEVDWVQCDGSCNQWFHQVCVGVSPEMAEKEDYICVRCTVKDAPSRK
How it was run: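 Here, H3K4me3 peptide (12.5 µM in substrate mix) is demethylated by KDM5BΔAP, 200 nM final, after 10 min compound exposure. Formaldehyde product is coupled through FDH (0.25 U/mL in mix) to NADH fluorescence; 30-min ΔRFU feeds dose-response curves.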
Also: nearly all actives have a fitted effect of over 70% in size.
For activity change, negative = inhibition in this document: 0% is about no effect.
Potency is read from the fitted curve at half-maximal effect; tags tell the direction and shape of the fitted curve.

SMILES | Potency | activity change, negative = inhibition
COc1ccc(CN2CCNc3cc(-c4ccccc4)ncc3C2)cn1 | inconclusive: 35.5 µM [inhibitor, single point] | 
COc1cc(-c2cn(C)c(=O)n3cc(COc4ccnn4C)nc23)ccn1 | active: 35.5 µM | 
COCCNC(=O)C1CCCN(C(=O)c2cc3ccccc3[nH]2)C1 (stereo unspecified) |  | inactive: 7.83%
CCCc1nc2ccccc2n2c(-c3ccccc3)c3c(=O)n(C)c(=O)n(C)c3c12 | inconclusive: 1.78 µM [inhibitor, partial curve, poor fit] | 
COc1ccc(-c2cc(-c3cccc(O)c3)cn3cncc23)cc1 | inconclusive: 6.31 µM [inhibitor, partial curve, poor fit] | 
Cc1c(CNC(=O)c2ccc3nc(-c4ccc(F)cc4)cn3c2)cnn1C | active: 28.2 µM | 
COc1ccccc1N(C)S(=O)(=O)c1ccc(C(=O)OCn2nnc3ccccc3c2=O)cc1 |  | inactive: 18.9%
O=C(NCc1ccccc1)c1ccc(CSc2nc3cccnc3n2Cc2cccc(F)c2)cc1 | inconclusive: 31.6 µM [inhibitor, partial curve, poor fit] | 
Cc1noc(C)c1-c1ncc2c(n1)OCCN(Cc1ccccc1)C2=O |  | inactive: -14.8% [at 86.2 µM]
CCCCN(CC)CCNC(=O)c1cc2c(=O)[nH]c3ccccc3c2n1C | inconclusive: 31.6 µM [inhibitor, partial curve, poor fit] | 
Cn1cccc1C(=O)N1CCCC(c2nn[nH]n2)C1 (stereo unspecified) | inconclusive: 28.2 µM [inhibitor, partial curve] | 
O=C1[C@@H]2C[C@@H](CN2CC2CC2)Oc2ccccc2N1Cc1ccccn1 | inconclusive: 22.4 µM [inhibitor, partial curve] | 
Cc1ccccc1OCC(=O)Nc1ccc(-c2nc3ncccc3o2)cc1 | inconclusive: 35.5 µM [inhibitor, partial curve, poor fit] | 
Cc1cn2nc(-c3nc(C4CCCN(C(=O)c5cccs5)C4)no3)cc2c(=O)[nH]1 (stereo unspecified) |  | inactive: -2790%
CCOc1ccc(CNCc2c(C(=O)O)n(Cc3ccc(C)cc3)c3cc(C)ccc23)cc1 | inconclusive: 28.2 µM [inhibitor, partial curve, poor fit] | 
CCn1c(=O)c2ccnn2c2ccc(C(=O)NC3CCCCC3)cc21 | active: 25.1 µM | 
COc1ccc(-c2ccc3c(c2)C(=O)N2C[C@@H](NS(=O)(=O)c4ccc(F)cc4)C[C@H]2C(=O)N3)cc1 | inconclusive: 17.8 µM [inhibitor, partial curve] | 
COCc1cc(C)n(CC(=O)Nc2cccc(C(F)(F)F)c2)c(=O)c1C#N | inconclusive: 28.2 µM [inhibitor, partial curve, poor fit] | 
Cc1ccc(C2=NN(c3nc(C)cs3)C(c3ccccc3F)C2)cc1 (stereo unspecified) | inconclusive: 22.4 µM [inhibitor, partial curve, poor fit] | 
Cc1ccc(C(=O)Nc2ccc(-c3nc4ccccc4s3)cc2C)cc1C | inconclusive: 1.58 µM [inhibitor, full curve, poor fit] and inconclusive: 1.78 µM [inhibitor, partial curve, poor fit] | 
Cc1cc(C)n(CC(=O)N[C@@H]2CN(Cc3ccccc3)C[C@H]2CN(C)C)n1 | inconclusive: 39.8 µM [inhibitor, partial curve, poor fit] | 
O=C(CN1CCN(c2ncccn2)CC1)N1CCC2(CCCNC2=O)C1 (stereo unspecified) | inconclusive: 25.1 µM [inhibitor, single point] | 

SMILES | Potency | activity change, negative = inhibition
Cc1ccc(C(CNC(=O)c2cc(=O)c3cc(Br)ccc3o2)N(C)C)o1 (stereo unspecified) |  | inactive: 10.7%
O=C(C1CCC1)N1CCC(Cc2nc(C3CCOCC3)no2)CC1 |  | inactive: -15.4%
COc1ccc(CNc2ncnc3c2CN(c2ccc(Cl)cc2)C(=O)N(C)C3)cc1 | inconclusive: 20 µM [inhibitor, single point] | 
COC(=O)[C@@H]1Cc2ncn(C)c2CN1C(=O)CC(C)(C)C |  | inactive: -29.9% [at 115 µM]
COc1ccccc1Cc1nc2ccccc2nc1SC(C)C(=O)NCc1ccco1 (stereo unspecified) |  | inactive: -3.86%
CSc1cccc(Nc2nc(SC)nc(-c3ccccc3)c2C#N)c1 |  | inactive: -3.87%
CN(CC(=O)N1c2ccccc2NC(=O)CC1C(F)(F)F)Cc1ccccc1Cl (stereo unspecified) |  | inactive: -13.4%
O=C1CC(c2ccccc2)N(Cc2ccncc2)CCCN(Cc2ccccn2)CCN1 (stereo unspecified) | inconclusive: 15.8 µM [inhibitor, partial curve, poor fit] | 
O=C(N/N=C/c1ccc(O)cc1)c1cc(-c2ccccc2)nc2ccccc12 | inconclusive: 39.8 µM [inhibitor, single point] | 
Cc1ccc(N(O)C(=O)NCCCCNC(=O)N(O)c2ccc(C)cc2)cc1 | inconclusive: 39.8 µM [inhibitor, single point] | 
Cc1ccc(CN2CCN(CC(=O)Nc3ccc(C)c(C)c3)S2(=O)=O)cc1 | inconclusive: 5.62 µM [inhibitor, partial curve, poor fit] | 
COc1ccccc1-c1c(NC(=O)C(C)C)n(C)c2ccccc2c1=O | inconclusive: 31.6 µM [inhibitor, partial curve, poor fit] | 
N#Cc1cccc(NC(=O)C2CCN(S(=O)(=O)c3ccc4[nH]c(=O)ccc4c3)CC2)c1 | inconclusive: 25.1 µM [inhibitor, single point] | 
COCC(=O)N(C1CCOCC1)C1CCN(C(=O)c2cc(Cl)ccc2F)CC1 |  | inactive: 19.1%
COC(=O)C1=C(C)N=C2SC=C(CC(=O)NCCc3cccs3)N2C1c1ccccc1Cl (stereo unspecified) | inconclusive: 17.8 µM [inhibitor, partial curve] | 
O=C(NC1CCCc2c1[nH]c1ccccc21)c1ccncc1 (stereo unspecified) |  | inactive: 12.7%
NC(=O)Cc1c[nH]c2ncc(-c3ccc(Cl)cc3)cc12 | active: 20 µM | 
Cc1oc(-c2cccs2)nc1CC(=O)NCc1ccc(CN2CCCCC2)cc1 | inconclusive: 31.6 µM [inhibitor, partial curve, poor fit] | 
Cc1cccc2c1-c1sc(C(=O)N(C)c3cccc(C(F)(F)F)c3)cc1CO2 | inconclusive: 35.5 µM [inhibitor, partial curve, poor fit] | 
Cc1cccc(NC(=O)CNC(=O)c2nccnc2N)c1C | inconclusive: 28.2 µM [inhibitor, partial curve, poor fit] | 
O=c1oc2cc(OCc3nn[nH]n3)ccc2cc1-c1ccc(Cl)cc1 |  | inactive: 1510%
O=S(=O)(Nc1nc2ccccc2nc1Nc1cccc(Br)c1)c1cccs1 |  | inactive: -5.89%

SMILES | Potency | activity change, negative = inhibition
COCCC(=O)N[C@@H]1CN(Cc2ccccc2)C[C@H]1CN(C)C |  | inactive: 14.8%
CCn1cc(C(=O)N2CCN(c3ccc(C(C)=O)cc3)CC2)c2cc(OC)c(OC)cc2c1=O | inconclusive: 17.8 µM [inhibitor, partial curve, poor fit] | 
O=C(COc1ccc(Cl)cc1Cl)NNC(=S)NC(=O)c1ccco1 | inconclusive: 28.2 µM [inhibitor, single point] | 
Cc1ccc2nc(CSc3nnc(N4CCCCC4)n3-c3ccccc3)cn2c1 |  | inactive: -0.276%
CC(=O)NCC(=O)N1Cc2ccccc2CC2(CCCCN2CC2CCNC2)C1 (stereo unspecified) | active: 2.82 µM | 
N#Cc1cccnc1N1CCC(NC(=O)c2ccc3cccc(F)c3n2)CC1 | active: 28.2 µM | 
CC1Oc2ccccc2C=C1/C=C1\Oc2cc(OCC(=O)OC(C)(C)C)ccc2C1=O (stereo unspecified) | inconclusive: 22.4 µM [inhibitor, partial curve, poor fit] | 
CCOC(=O)C1CCN(C(=O)c2ccc3c(=O)n4nc(Nc5cc(C)ccc5C)sc4nc3c2)CC1 | inconclusive: 39.8 µM [inhibitor, single point] | 
Cc1ccc(CNC(=O)c2cc3c(=O)n(Cc4cccnc4)ccc3nc2C)cc1 | inconclusive: 31.6 µM [inhibitor, partial curve, poor fit] | 
O=C(c1ccc2c(c1)OCO2)N1CCC(n2cc(-c3nc(-c4ccccc4)no3)nn2)CC1 | inconclusive: 14.1 µM [inhibitor, partial curve, poor fit] | 
Cc1cccc(OC(=O)C(c2ccccc2)c2ccccc2)c1 |  | inactive: 2.24%
CCC(CC)C(=O)Nc1nnc(C2CC(=O)N(c3ccc(Cl)cc3)C2)s1 (stereo unspecified) |  | inactive: 13.9%
COC(=O)c1cc(-c2ccc(Cl)s2)nc2ccccc12 | inconclusive: 25.1 µM [inhibitor, partial curve, poor fit] | 
Cc1ccc(CN(Cc2ccco2)C(=O)COc2ccc(C(C)C)cc2)cc1 | inconclusive: 17.8 µM [inhibitor, single point] | 
CC(C)NC(=O)N1CNC(=O)C12CCN(C(=O)CN)CC2 | inconclusive: 100 µM [inhibitor, partial curve] | 
Cc1ccc(C)c(N2CCN(c3cc(C)nc4nc(-c5ccco5)nn34)CC2)c1 |  | inactive: -8.18%
COc1ccc(-c2ccc3nnc(CNC(=O)c4cc(F)ccc4F)n3n2)cc1 | active: 28.2 µM | 
CN1CCN(c2oc(-c3ccco3)nc2C#N)CC1 | inconclusive: 28.2 µM [inhibitor, partial curve, poor fit] | 
CCCCN(CC)CCCNC(=O)c1cc2c(=O)[nH]c3ccccc3c2s1 | inconclusive: 3.16 µM [inhibitor, full curve, poor fit] and inconclusive: 22.4 µM [inhibitor, partial curve, poor fit] | 
O=C(NCCc1noc(C2CC2)n1)NCc1ccc(F)cc1 |  | inactive: -8.65%
CCc1noc(-c2ccn3c(CNC(=O)c4cc(Cl)ccc4F)nnc3c2)n1 | inconclusive: 2.24 µM [inhibitor, full curve, poor fit] | 
COc1ccc2c(c1)CCN=C2C[C@H]1CN(S(=O)(=O)C(C)C)CC[C@H]1CC(=O)O | inconclusive: 39.8 µM [inhibitor, partial curve, poor fit] | 

Reference: PubChem BioAssay AID1347165 (National Center for Advancing Translational Sciences (NCATS), 2019)
